# Measured values from PubChem BioAssay (Tox21).
# “And” between values parts separate entries of the source, which are not always exact repeats. Equal entries are not always repeated. The inconclusive results got no clear call from the source; some entries with a clear call stand among them for comparison. For some of these results: Potencies of inconclusive entries are doubtful fits and often do not repeat. The source made the active and inactive calls. Unless noted, calls come from the whole dose curve; as a rule, active = well fitted curve in the direction sought with a large enough effect in the repeat runs; inconclusive = weak or mixed curves; inactive = no such curve, though single readings can be large; an effect the other way counts as inactive or inconclusive.
# Experiments:
# [1] = qHTS assay for small molecule agonists of the antioxidant response element (ARE) signaling pathway (AID 743202; active = well fitted activation curve with a large enough effect in the signal ratio in the repeat runs, not every such curve was filed as active; inconclusive = weak or mixed curves, or effect the other way; inactive = no such curve, though single readings can be large or run the other way; the % refers to the signal ratio; note: potency is the fitted concentration of half-maximal effect; for activation: % is set by controls: 0 for no effect and ±100 for the full control effect); conditions: HepG2 ARE-bla reporter, beta-lactamase FRET, 16 h; activation: at 73.3 µM (top of the series) unless noted
# In short: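 Beta-lactamase reporter activity, read as fluorescence intensity, reflects ARE/Nrf2 pathway induction in HepG2 cells after 16 h compound exposure at 37 C; substrate loading was 2 h at room temperature.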
# [2] = qHTS assay to identify small molecule agonists of the peroxisome proliferator-activated receptor delta (PPARd) signaling pathway - cell viability counter screen (AID 743211); conditions: PPARd-bla HEK293H viability, CellTiter-Glo luminescence, 17 h; activity change, negative = cytotoxicity: at 62.6 µM (top of the series); note: nearly all actives have a fitted effect of over 55% in size; note: potency is the fitted concentration of half-maximal effect
# In short: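 Tox21 library compounds, delivered in DMSO, were incubated 17 h with PPARd-bla HEK293H cells; cytotoxicity was taken from CellTiter-Glo luminescence read 30 min after reagent addition.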
# [3] = qHTS assay to identify small molecule antagonists of the peroxisome proliferator-activated receptor delta (PPARd) signaling pathway - cell viability counter screen (AID 743213); conditions: PPARd-bla HEK293H viability, CellTiter-Glo luminescence, 17 h; viability change, negative = cytotoxic: at 62 µM (top of the series) unless noted; note: nearly all actives have a fitted effect of over 50% in size; note: potency is the fitted concentration of half-maximal effect
# In short: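 Same-well viability: cells pre-incubated 5 h, dosed with compound plus 300 nM L165041, kept 17 h at 37 C, FRET substrate 2 h RT, then CellTiter-Glo 30 min RT and luminescence.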
# [4] = qHTS assay to identify small molecule antagonists of the farnesoid-X-receptor (FXR) signaling pathway - cell viability counter screen (AID 743221; active = well fitted cell-killing curve with a large enough effect in the repeat runs, not every such curve was filed as active; inconclusive = weak or mixed curves, or effect the other way; inactive = no such curve, though single readings can be large or run the other way; note: nearly all actives have a fitted effect of over 50% in size; note: potency is the fitted concentration of half-maximal effect); conditions: FXR-bla HEK293T viability, CellTiter-Glo luminescence, 16 h; activity change, negative = cytotoxicity: at 62.6 µM (top of the series) unless noted
# In short: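 Cytotoxicity is taken from ATP luminescence (CellTiter-Glo, 30 min, room temperature) in FXR-bla HEK 293T cells previously incubated 16 h at 37 C with compound and chenodeoxycholic acid at 50 uM final.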
# [5] = target: Vitamin D3 receptor (Homo sapiens) (UniProt P11473); test: qHTS assay to identify small molecule antagonists of the vitamin D receptor (VDR) signaling pathway (AID 743223; active = well fitted inhibition curve with a large enough effect in the signal ratio in the repeat runs, not every such curve was filed as active; inconclusive = weak or mixed curves, or effect the other way; inactive = no such curve, though single readings can be large or run the other way; the % refers to the signal ratio; note: potency is the fitted concentration of half-maximal effect); conditions: VDR-UAS-bla HEK293T, beta-lactamase FRET ratio, 16 h; activity change, negative = inhibition: at 61 µM (top of the series) unless noted
# In short: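 Quantitative HTS in VDR-bla reporter cells stimulated with 1alpha,25-dihydroxyvitamin D3, 3 nM final. Compound exposure 16 h, 37C, 5% CO2. Read-out: beta-lactamase FRET substrate fluorescence, 2 h RT.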
# [6] = qHTS assay to identify small molecule agonists of the vitamin D receptor (VDR) signaling pathway - cell viability counter screen (AID 743224); conditions: VDR-bla HEK293T viability, CellTiter-Glo luminescence, 16 h; activity change, negative = cytotoxicity: at 62.6 µM (top of the series); note: nearly all actives have a fitted effect of over 50% in size; note: potency is the fitted concentration of half-maximal effect
# In short: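 Counter screen for cytotoxicity: VDR-bla cells at 2,000 cells/well, 16 h compound exposure, then CellTiter-Glo luminescence after the beta-lactamase measurement.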
# [7] = qHTS assay to identify small molecule antagonists of the vitamin D receptor (VDR) signaling pathway - cell viability counter screen (AID 743225); conditions: VDR-bla HEK293T viability, CellTiter-Glo luminescence, 16 h; viability change, negative = cytotoxic: at 61 µM (top of the series) unless noted; note: nearly all actives have a fitted effect of over 50% in size; note: potency is the fitted concentration of half-maximal effect
# In short: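 Same-well multiplex: following 16 h treatment of HEK 293T cells carrying a UAS-driven beta-lactamase reporter with compound and agonist (3 nM final), and a 2 h FRET substrate step, CellTiter-Glo was added and luminescence read after 30 min.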
# [8] = target: Nuclear receptor ROR-gamma (Homo sapiens) (UniProt P51449); test: qHTS assay to identify small molecule antagonists of the retinoid-related orphan receptor gamma (ROR-gamma) signaling pathway (AID 1159521; note: nearly all actives have a fitted effect of over 50% in size; note: potency is the fitted concentration of half-maximal effect); conditions: Tet-on RORgamma CHO cells, RORE-luciferase, 16 h; series mostly up to 92.4 µM
# In short: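 Inducible-expression reporter assay: doxycycline (1 uM final) switched on RORγ in CHO cells bearing a ROR response element-luciferase construct, with test compounds present from 2 h beforehand. Decreased luminescence after 16 h defined antagonist activity.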
# [9] = target: Peroxisome proliferator-activated receptor delta (Homo sapiens) (UniProt Q03181); test: qHTS assay to identify small molecule agonists of the peroxisome proliferator-activated receptor delta (PPARd) signaling pathway (AID 743212; calls by dose curve;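 note: HEK293H cells with PPARd UAS beta-lactamase reporter GeneBLAzer system; % is set by controls: 0 for no effect and ±100 for the full control effect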); conditions: HEK293H PPARd-UAS-bla, beta-lactamase FRET ratio, 17 h; activation: at 62.6 µM (top of the series) unless noted
# In short: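 Steps: seed PPARd-bla HEK293H cells; incubate 5 h, 37 C, 5% CO2; add compounds in DMSO; incubate, 37 C; add LiveBLAzer B/G FRET substrate; hold 2 h at room temperature; measure fluorescence.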
# [10] = target: Peroxisome proliferator-activated receptor delta (Homo sapiens) (UniProt Q03181); test: qHTS assay to identify small molecule antagonists of the peroxisome proliferator-activated receptor delta (PPARd) signaling pathway (AID 743215; active = well fitted inhibition curve with a large enough effect in the signal ratio in the repeat runs, not every such curve was filed as active; inconclusive = weak or mixed curves, or effect the other way; inactive = no such curve, though single readings can be large or run the other way; the % refers to the signal ratio;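 note: cells stimulated with agonist L165041 at 300 nM final during compound exposure; % is set by controls: 0 for no effect and ±100 for the full control effect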); conditions: HEK293H PPARd-UAS-bla, beta-lactamase FRET ratio, antagonist, 17 h; ratio activity, negative = inhibition: at 62 µM (top of the series) unless noted
# In short: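 Screen format: qHTS, antagonist mode. HEK293H PPARd-bla cells received compound and 300 nM L165041 (final), 17 h, 37 C. Beta-lactamase detected via FRET substrate fluorescence, 2 h, room temperature.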
# [11] = target: Bile acid receptor (Homo sapiens) (UniProt Q96RI1); test: qHTS assay to identify small molecule antagonists of the farnesoid-X-receptor (FXR) signaling pathway (AID 743217; active = well fitted inhibition curve with a large enough effect in the signal ratio in the repeat runs, not every such curve was filed as active; inconclusive = weak or mixed curves, or effect the other way; inactive = no such curve, though single readings can be large or run the other way; the % refers to the signal ratio; note: potency is the fitted concentration of half-maximal effect); conditions: HEK293T FXR-UAS-bla, beta-lactamase ratio, CDCA-stimulated, 16 h; activity change, negative = inhibition: at 62.6 µM (top of the series) unless noted
# In short: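 Quantitative HTS, beta-lactamase reporter format: FXR-UAS-bla HEK 293T cells co-treated 16 h at 37 °C with compounds and 50 uM final chenodeoxycholic acid, then read by B/G FRET fluorescence.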
# [12] = qHTS assay to identify small molecule agonists of the farnesoid-X-receptor (FXR) signaling pathway - cell viability counter screen (AID 743218); conditions: FXR-bla HEK293T viability, CellTiter-Glo luminescence, 16 h; viability change, negative = cytotoxic: at 62.6 µM (top of the series) unless noted; note: nearly all actives have a fitted effect of over 45% in size; note: potency is the fitted concentration of half-maximal effect
# In short: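 Same-well cytotoxicity check on FXR-UAS-bla HEK 293T cells: 5 h attachment, 16 h compound at 37 C, CellTiter-Glo luminescence read at room temperature after 30 min.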
# [13] = qHTS assay for small molecule activators of the heat shock response signaling pathway (AID 743210; active = well fitted activation curve with a large enough effect in the signal ratio in the repeat runs, with a control signal flat, not every such curve was filed as active; inconclusive = weak or mixed curves; the % refers to the signal ratio; note: potency is the fitted concentration of half-maximal effect); conditions: HeLa HSE-bla reporter, beta-lactamase ratio, 5 h; activation: at 62.6 µM (top of the series) unless noted
# In short: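 Fluorescence from a cleaved B/G FRET substrate (2.5 h, room temp) reports HSE-driven beta-lactamase in HeLa cells treated 5 h at 37 C with DMSO-dissolved compounds.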
# [14] = target: Bile acid receptor (Homo sapiens) (UniProt Q96RI1); test: qHTS assay to identify small molecule agonists of the farnesoid-X-receptor (FXR) signaling pathway (AID 743220; active = well fitted activation curve with a large enough effect in the signal ratio in the repeat runs, not every such curve was filed as active; inconclusive = weak or mixed curves, or effect the other way; the % refers to the signal ratio; note: potency is the fitted concentration of half-maximal effect); conditions: HEK293T FXR-UAS-bla, beta-lactamase FRET ratio, 16 h; activation: at 62.6 µM (top of the series)
# In short: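 FXR-UAS-bla HEK 293T cells carrying a UAS-driven beta-lactamase reporter were plated for 5 h at 37C/5% CO2, then exposed to DMSO-dissolved Tox21 10K compounds for 16 h at 37C. A LiveBLAzer B/G FRET substrate was loaded for 2 h at room temperature before fluorescence reading.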
# [15] = target: Vitamin D3 receptor (Homo sapiens) (UniProt P11473); test: qHTS assay to identify small molecule agonists of the vitamin D receptor (VDR) signaling pathway (AID 743222; calls by dose curve; note: % is set by controls: 0 for no effect and ±100 for the full control effect); conditions: HEK293T VDR-UAS-bla, beta-lactamase FRET ratio, 16 h; activation: at 63.5 µM (top of the series) unless noted
# In short: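 Using LiveBLAzer B/G FRET detection, agonism was scored in VDR-bla cells exposed overnight (16 h, 37C) to DMSO-dissolved compounds; substrate incubation was 2 h at room temperature.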
# Tags give direction and shape of the fitted curve or compound fluorescence and quenching.
# UniProt Q96RI1, sequence (Q96RI1 whole entry, looked up): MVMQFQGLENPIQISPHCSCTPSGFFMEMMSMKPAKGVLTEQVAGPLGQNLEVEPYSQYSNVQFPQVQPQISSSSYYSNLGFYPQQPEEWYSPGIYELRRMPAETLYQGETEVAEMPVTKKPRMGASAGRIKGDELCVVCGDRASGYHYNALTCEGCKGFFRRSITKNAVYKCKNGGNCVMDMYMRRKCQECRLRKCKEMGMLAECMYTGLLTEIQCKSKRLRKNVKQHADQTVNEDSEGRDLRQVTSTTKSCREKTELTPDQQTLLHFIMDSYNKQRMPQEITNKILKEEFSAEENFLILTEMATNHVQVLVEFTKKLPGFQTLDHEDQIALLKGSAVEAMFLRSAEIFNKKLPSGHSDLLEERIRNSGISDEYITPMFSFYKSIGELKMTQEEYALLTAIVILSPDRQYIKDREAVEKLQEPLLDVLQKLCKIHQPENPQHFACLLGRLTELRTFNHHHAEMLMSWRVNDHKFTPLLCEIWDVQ
# UniProt Q03181, sequence (Q03181 whole entry, looked up): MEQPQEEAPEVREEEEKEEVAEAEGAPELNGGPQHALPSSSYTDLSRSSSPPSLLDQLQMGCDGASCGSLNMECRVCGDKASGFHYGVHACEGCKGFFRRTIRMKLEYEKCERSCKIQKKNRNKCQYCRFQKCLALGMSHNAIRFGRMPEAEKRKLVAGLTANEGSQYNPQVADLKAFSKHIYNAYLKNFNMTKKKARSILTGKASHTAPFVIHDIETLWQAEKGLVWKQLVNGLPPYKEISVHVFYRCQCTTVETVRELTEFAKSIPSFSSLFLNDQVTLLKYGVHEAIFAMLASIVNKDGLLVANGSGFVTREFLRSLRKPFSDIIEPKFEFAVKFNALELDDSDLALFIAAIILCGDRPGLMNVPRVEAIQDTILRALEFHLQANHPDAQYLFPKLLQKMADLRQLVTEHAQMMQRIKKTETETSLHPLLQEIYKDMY
# UniProt P11473, sequence (P11473 whole entry, looked up): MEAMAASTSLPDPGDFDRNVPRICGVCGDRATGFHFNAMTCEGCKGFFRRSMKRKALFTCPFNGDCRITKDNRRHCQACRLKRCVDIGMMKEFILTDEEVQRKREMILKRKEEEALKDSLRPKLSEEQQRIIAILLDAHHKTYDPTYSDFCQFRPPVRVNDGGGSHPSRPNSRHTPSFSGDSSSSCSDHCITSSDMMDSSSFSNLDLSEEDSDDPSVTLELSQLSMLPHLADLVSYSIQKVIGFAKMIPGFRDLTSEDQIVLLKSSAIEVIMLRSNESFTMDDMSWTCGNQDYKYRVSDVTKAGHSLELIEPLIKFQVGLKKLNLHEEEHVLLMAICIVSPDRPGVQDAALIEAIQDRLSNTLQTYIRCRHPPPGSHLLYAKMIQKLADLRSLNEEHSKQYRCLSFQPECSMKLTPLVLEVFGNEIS
structure (smiles),measurement,setting,value
CCCC[P+](CCCC)(CCCC)CCCC,Potency,[1],inactive
same,Potency,[2],"inconclusive: 56 µM [cytotoxic, partial curve, poor fit]"
same,Potency,[3],"inconclusive: 7.92 µM [cytotoxic, full curve, poor fit]"
same,Potency,[4],"inconclusive: 0.155 µM [rising, partial curve, poor fit]"
same,Potency,[5],inactive
same,Potency,[6],"inactive and inconclusive: 56 µM [cytotoxic, single point]"
same,Potency,[7],"inconclusive: 0.997 µM [cytotoxic, full curve, poor fit]"
same,Potency,[8],"inconclusive: 27.2 µM [inhibitor, single point] and inactive"
CSc1ccc(Oc2ccc(S(N)(=O)=O)cc2CN(C)C)cc1C,activation,[1],inconclusive: -6.21%
same,Potency,[2],"inconclusive: 11 µM [cytotoxic, partial curve, poor fit]"
same,activation,[9],inconclusive: -9.5%
same,"ratio activity, negative = inhibition",[10],inconclusive: -37.5%
same,Potency,[11],"inconclusive: 6.92 µM [inhibitor, full curve]"
same,Potency,[12],"inconclusive: 17.4 µM [cytotoxic, partial curve]"
same,Potency,[4],"inconclusive: 13.8 µM [falling, partial curve, poor fit]"
same,Potency,[5],"inconclusive: 5.49 µM [rising, partial curve, poor fit]"
same,Potency,[6],"inconclusive: 21.9 µM [cytotoxic, partial curve]"
same,Potency,[7],"inconclusive: 21.9 µM [cytotoxic, partial curve, poor fit]"
same,Potency,[8],"inconclusive: 54.5 µM [inhibitor, partial curve, poor fit]"
COc1ccc(CCC(=O)c2c(O)cc(O[C@@H]3O[C@H](CO)[C@@H](O)[C@H](O)[C@H]3O[C@@H]3O[C@@H](C)[C@H](O)[C@@H](O)[C@H]3O)cc2O)cc1O,Potency,[1],inactive
same,Potency,[13],inactive
same,Potency,[7],inactive
same,Potency,[8],"inconclusive: 0.972 µM [inhibitor, single point]"
CCCN(CCC)S(=O)(=O)c1ccc(C(=O)O)cc1,Potency,[1],"inconclusive: 4.73 µM [falling, partial curve, poor fit]"
same,Potency,[13],inconclusive: 58.6 µM [activator]
same,Potency,[3],"inconclusive: 6.2 nM [cytotoxic, full curve, poor fit] and inconclusive: 211 nM [cytotoxic, partial curve, poor fit]"
same,"activity change, negative = inhibition",[5],inconclusive: -6.72%
same,"viability change, negative = cytotoxic",[7],inconclusive: -7.69% [cytotoxic]
same,Potency,[8],inactive
N#CCC(=O)NN,activation,[1],inconclusive: -7.32%
same,Potency,[2],inactive
same,Potency,[9],inactive
same,Potency,[3],inactive
same,Potency,[12],inactive
same,"activity change, negative = inhibition",[5],inconclusive: -0.0331%
same,Potency,[8],inactive
C/C(Cl)=C/CCl,Potency,[1],active: 31.2 µM
same,Potency,[3],"inconclusive: 0.0056 µM [cytotoxic, full curve, poor fit]"
same,Potency,[8],inactive
CCOc1cc(OCC)c(C(C)=O)cc1OCC,Potency,[1],"inconclusive: 37.9 µM [rising, partial curve, poor fit]"
same,activation,[13],inconclusive: 4.41%
same,Potency,[3],inactive
same,Potency,[11],inactive
same,Potency,[8],inactive
COc1cc2nc(Cl)nc(N)c2cc1OC,activation,[1],inconclusive: -5.95%
same,Potency,[3],inactive
same,Potency,[8],"inconclusive: 13.3 µM [inhibitor, single point]"
O=C(O)C(Cc1cc(I)c(O)c(I)c1)c1ccccc1 (configuration not stated),Potency,[1],inactive
same,Potency,[13],inactive
same,Potency,[4],inactive
same,Potency,[8],"inconclusive: 2.66 µM [inhibitor, single point]"
Oc1cc(O)c(Cl)cc1Cl,Potency,[1],"inconclusive: 9.93 µM [rising, full curve]"
same,Potency,[13],active: 50.2 µM
same,Potency,[4],inactive
same,Potency,[7],"inconclusive: 12.6 µM [rising, partial curve, poor fit]"
same,Potency,[8],"inconclusive: 19.8 µM [inhibitor, partial curve, poor fit]"
CSc1ccc(C=O)cc1,Potency,[1],inactive
same,Potency,[13],inactive
same,Potency,[6],"inconclusive: 3.88 µM [rising, full curve, poor fit]"
same,Potency,[8],inactive
Cc1cc(O)c2c(O)c3c(O)cccc3cc2c1,Potency,[1],active: 11.9 µM
same,Potency,[13],inactive
same,Potency,[14],"inconclusive: 33.5 µM [rising, partial curve, poor fit]"
same,activation,[15],inconclusive: -30.4%
same,Potency,[5],"inconclusive: 23.9 µM [fluorescent, partial curve, poor fit]"
same,Potency,[6],"inconclusive: 29.8 µM [cytotoxic, partial curve, poor fit]"
same,Potency,[8],"inconclusive: 33.5 µM [inhibitor, single point]"
